Some of the results follow. Values were computed here from the reads of four pooled replicates and scatter widely.
Biological target: T1, Pho4 (S. cerevisiae) (UniProt P07270)
T1 sequence: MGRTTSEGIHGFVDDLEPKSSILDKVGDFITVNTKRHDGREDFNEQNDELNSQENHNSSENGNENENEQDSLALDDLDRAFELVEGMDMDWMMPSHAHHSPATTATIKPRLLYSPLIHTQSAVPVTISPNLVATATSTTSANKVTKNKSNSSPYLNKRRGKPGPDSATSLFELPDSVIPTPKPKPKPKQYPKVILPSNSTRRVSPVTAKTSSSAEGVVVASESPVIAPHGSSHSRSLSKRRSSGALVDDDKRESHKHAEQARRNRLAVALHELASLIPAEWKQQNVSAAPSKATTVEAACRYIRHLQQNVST
Assay: relative binding free energy (BET-seq); higher = weaker binding
Settings: reference: library average

| Sequence | relative binding free energy |
| --- | --- |
| ATGAGCACGTGGGATT | -0.1 kcal/mol |
| CGGTTCACGTGGGTGA | 0.25 kcal/mol |
| GGTGTCACGTGGGGAC | 0.01 kcal/mol |
| ATGACCACGTGTGGGG | -0.04 kcal/mol |
| ATGGGCACGTGTGACT | -0.01 kcal/mol |
| TTTGACACGTGGTAGA | -0.07 kcal/mol |
| CGCTGCACGTGGGTTA | -0.14 kcal/mol |
| TGGTCCACGTGTTATT | 0.06 kcal/mol |
| TTTACCACGTGGGCGG | -0.23 kcal/mol |
| GTTTTCACGTGAATCT | 0.5 kcal/mol |
| AGGGACACGTGGGCGG | -0.1 kcal/mol |
| GGGCCCACGTGGGGTT | -0.16 kcal/mol |
| GGGCCCACGTGAGTGG | 0.13 kcal/mol |
| GAGGTCACGTGGCATT | 0.09 kcal/mol |
| GGAGTCACGTGGCTTT | 0.03 kcal/mol |
| ATAGTCACGTGGTTGA | 0.08 kcal/mol |
| ATTCGCACGTGATTAT | 0.12 kcal/mol |
| TGAATCACGTGTAGCG | 0.32 kcal/mol |
| GCCTTCACGTGGTGTG | 0.18 kcal/mol |
| GGTTCCACGTGTGAGG | 0.2 kcal/mol |
| GGCGCCACGTGGTGTT | -0.19 kcal/mol |
| TCGGTCACGTGTGTCA | 0.09 kcal/mol |
| GGGCACACGTGTCGGG | 0.15 kcal/mol |

| Sequence | relative binding free energy |
| --- | --- |
| TTAGGCACGTGGGATG | -0.14 kcal/mol |
| GCGTGCACGTGTATGT | -0.06 kcal/mol |
| CTGAGCACGTGTAAGG | -0.03 kcal/mol |
| AGCTGCACGTGTTTGA | 0.08 kcal/mol |
| GAGGTCACGTGGGGTC | 0.09 kcal/mol |
| TTGGGCACGTGTCAGT | -0.06 kcal/mol |
| GTATGCACGTGTGATA | 0.01 kcal/mol |
| TTTTTCACGTGATATT | 0.38 kcal/mol |
| TGGGTCACGTGTGGCG | 0.2 kcal/mol |
| TAGTCCACGTGGGTAT | 0.04 kcal/mol |
| ATTCTCACGTGTTGTA | 0.34 kcal/mol |
| TGTTGCACGTGCTAAG | -0.01 kcal/mol |
| TCGTACACGTGGGTTG | -0.1 kcal/mol |
| TGTTTCACGTGTGTAA | 0.32 kcal/mol |
| GGATACACGTGGGGAT | 0 kcal/mol |
| TGGTCCACGTGTCGTG | 0.08 kcal/mol |
| TACTGCACGTGGATGT | -0.04 kcal/mol |
| TCTTTCACGTGCTGTG | 0.14 kcal/mol |
| AACAGCACGTGGGGTT | -0.21 kcal/mol |
| TGGGACACGTGTGGTA | 0.07 kcal/mol |
| CGATGCACGTGAGGTG | 0.09 kcal/mol |
| CTGAGCACGTGATGTA | 0.16 kcal/mol |
| TGCGTCACGTGGGAAA | 0.03 kcal/mol |

| Sequence | relative binding free energy |
| --- | --- |
| CGGTTCACGTGGGCGT | 0.1 kcal/mol |
| CTTCGCACGTGAGGGT | 0.19 kcal/mol |
| TGGGTCACGTGGGTTC | 0.06 kcal/mol |
| AATTGCACGTGCTATG | -0.12 kcal/mol |
| GTAGTCACGTGAGAAG | 0.24 kcal/mol |
| GGGGTCACGTGGCTTG | 0.08 kcal/mol |
| GTTGTCACGTGCTTCG | 0.12 kcal/mol |
| GTGAACACGTGGGAGA | -0.07 kcal/mol |
| TGAAGCACGTGGTGAA | -0.13 kcal/mol |
| TGATGCACGTGTACTT | 0 kcal/mol |
| AGGTGCACGTGCGGCG | -0.15 kcal/mol |
| TGGTTCACGTGATGGG | 0.37 kcal/mol |
| AAATTCACGTGGTTTA | 0.14 kcal/mol |
| ATACACACGTGTGTGT | -0.09 kcal/mol |
| TGTCTCACGTGTCTTT | 0.22 kcal/mol |
| ATGTTCACGTGGTCTT | 0.36 kcal/mol |
| CGGGGCACGTGATATG | -0.25 kcal/mol |
| GCGGTCACGTGTATTT | 0.24 kcal/mol |
| GTGGACACGTGTCTTT | 0.23 kcal/mol |
| TGAGACACGTGTAGGA | 0.04 kcal/mol |
| GCATTCACGTGGGTGG | 0.1 kcal/mol |
| TTTTTCACGTGTCATG | 0.24 kcal/mol |
| GGGGACACGTGCGCGG | -0.08 kcal/mol |

| Sequence | relative binding free energy |
| --- | --- |
| CTATTCACGTGAGGAT | 0.44 kcal/mol |
| TTGGGCACGTGAGGGG | 0.18 kcal/mol |
| CGGGGCACGTGGGTGG | -0.18 kcal/mol |
| TGATGCACGTGGGGGC | -0.11 kcal/mol |
| GAGGACACGTGTAGGC | 0.07 kcal/mol |
| AGCCTCACGTGGGTTG | 0.02 kcal/mol |
| TTAAACACGTGAGGTT | 0.11 kcal/mol |
| GGAAACACGTGTGTCT | 0.18 kcal/mol |
| TTTGACACGTGGTGAC | 0 kcal/mol |
| GGCCTCACGTGGTATT | 0.26 kcal/mol |
| TAGTGCACGTGGGAAG | -0.13 kcal/mol |
| GAGGTCACGTGCGGTG | 0.19 kcal/mol |
| TTGTTCACGTGAAAAG | 0.27 kcal/mol |
| TACGGCACGTGGGAGT | -0.13 kcal/mol |
| TGCGACACGTGTTTTA | 0.05 kcal/mol |
| TGCGTCACGTGGTCGT | -0.1 kcal/mol |
| AAATGCACGTGGGTGT | -0.05 kcal/mol |
| ATGGGCACGTGTCTGG | -0.14 kcal/mol |
| TGTCGCACGTGTAGCG | -0.13 kcal/mol |
| GTGCGCACGTGTGTGA | 0 kcal/mol |
| TGTTCCACGTGTCATG | 0.06 kcal/mol |
| ATTGGCACGTGGCATA | -0.22 kcal/mol |
| CAGGGCACGTGGATGT | -0.05 kcal/mol |

| Sequence | relative binding free energy |
| --- | --- |
| TGACGCACGTGGCGGT | -0.21 kcal/mol |
| GTGGACACGTGTGGAA | 0.01 kcal/mol |
| TGAGGCACGTGAGGTT | 0.23 kcal/mol |
| GTTAACACGTGGTGGG | 0.02 kcal/mol |
| AGTGACACGTGGTCTT | -0.11 kcal/mol |
| GAGTCCACGTGTTTGG | 0.34 kcal/mol |
| CTGGGCACGTGTAAGT | 0.1 kcal/mol |
| CAGCTCACGTGGGTGT | 0.01 kcal/mol |
| ATTAACACGTGGTAAT | 0.02 kcal/mol |
| GATTGCACGTGGTAAA | 0.12 kcal/mol |
| GTGTGCACGTGAGTTT | 0.25 kcal/mol |
| CAGTGCACGTGGTTTA | -0.07 kcal/mol |
| CGTGGCACGTGATATT | -0.05 kcal/mol |
| AGGCGCACGTGTTGCG | -0.16 kcal/mol |
| GTAGACACGTGGTGTA | 0.04 kcal/mol |
| GGCGGCACGTGAAGCG | 0.24 kcal/mol |
| ATCTTCACGTGATTTA | 0.26 kcal/mol |
| TTGAGCACGTGCTATT | -0.08 kcal/mol |
| ATGCACACGTGGTGCT | 0.04 kcal/mol |
| AAAAGCACGTGTGGCG | -0.14 kcal/mol |
| AGTCACACGTGGGGAG | -0.07 kcal/mol |
| TGATTCACGTGGTGGA | 0.26 kcal/mol |
| TGCTACACGTGTTAGG | 0.1 kcal/mol |

From the BET-seq Pho4 binding data (Le et al. 2018)
